Assay results from PubChem BioAssay AID485313 (National Center for Advancing Translational Sciences (NCATS), 2010).
Hit rate of the full screen: of about 320,000 compounds, about 7,600 (2.4%) were called active. This list was built around the results that the source calls inconclusive (neither active nor inactive); the mix of calls is not that of the screen. The call rests on the fitted dose curve; in most records, active means well fitted activation curve with a large enough effect; inconclusive means small, poorly fitted or top-dose-only effect; inactive means no such curve, though single readings can be large or run the other way. A potency beside an inconclusive call is a rough fit, not a confirmed value.

assay: qHTS Assay for NPC1 Promoter Activators; conditions: Huh7 NPC1 promoter luciferase reporter, 24 h; series mostly up to 9.22 µM; activation: at the top concentration; further: nearly all actives have a fitted effect of over 60% in size;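 on activation: reporter is driven by a mutant NPC1 promoter; % of control where 0% means no effect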
Summary of the method: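 Huh7 reporter cells (NPC1 promoter driving luciferase) are dosed with compound for 24 h at 37 °C, 5% CO2; luciferase detection reagent is then added and luminescence measured after 10 min at ambient temperature.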
Potency means the concentration at half of the fitted maximal effect; tags describe the fitted curve by direction and shape.

activation, inactive:
O=C1c2ccccc2C(=O)N1CCSc1nc2ccccc2c(=O)n1CCCN1CCOCC1 2.19%, CCC(=O)OCC(=O)c1cc(C)n(-c2ccc(Br)cc2)c1C -5%, O=[N+]([O-])c1ccc2nc(SCc3cn4ccccc4n3)[nH]c2c1 3.3%, Cc1cccc(N(C(=O)CCC(=O)Nc2ccccn2)C(C(=O)NC(C)C)c2ccc(F)cc2)c1 (configuration not stated) 0.732%, CCOc1ccc2nc(N3CCCC(C(=O)NCCCN4CC(C)CC(C)C4)C3)sc2c1 (configuration not stated) 3.19%, COc1cc(CN2CCN(CC3CC3)CC2CCO)cc(OC)c1 (configuration not stated) -2.55%, COc1cccc(-c2nnc3n2N=C(C(C)(C)C)CS3)c1 25.6%, O=S(=O)(Nc1cccc(-c2nc3cccnc3s2)c1)c1cccs1 4.77%, COc1ccc(-c2cc(C)no2)cc1S(=O)(=O)N1CCN(C(=O)c2ccco2)CC1 -1.7%, CCOCC(=O)Nc1ccc([N+](=O)[O-])cc1C -3.65%, CC(=O)Nc1ccc(S(=O)(=O)N2CCN(S(=O)(=O)c3ccc(NC(C)=O)cc3)CC2)cc1 0.525%, CN(CCCNC(=O)CCc1cn(C)c2ccccc12)C1CCCCC1 -1.36%, Cc1nn(-c2ccccc2)c(Cl)c1/C=C1\C(=O)N(C)C(=S)N1C -7.92%, COc1ccc(C(=O)/C=C2/C(=O)Nc3ccccc32)cc1OC -0.942%, O=C(/C=C/c1ccc(OCc2cccc(Cl)c2)cc1)N1CCOCC1 1.3%, O=C1N=c2ccc(Br)cc2=C1c1sc(=S)n(NS(=O)(=O)c2ccccc2)c1O -5.6%, O=C(CSc1nc(-c2ccc(F)cc2)nc2ccc(F)cc12)Nc1cccc(C(=O)O)c1 -2.08%, COc1ccc(-c2nnc(NC(=O)C3CCCN3S(=O)(=O)c3cccs3)o2)cc1 (configuration not stated) 2.82%, O=C(CSCc1ccc(Cl)cc1)N/N=C/c1ccco1 -2.4%, CCOC(=O)c1c(N/N=C/c2cccnc2)n[nH]c1C -12.6%, Cc1cc(-c2ccccc2)nc(SCC(=O)N2CCCC2)n1 -0.0296%, COc1cc(C(=O)NC(=S)Nc2ccc3c(c2)C(=O)N(C)C3=O)cc(OC)c1OC 0.0658%, CC(C)c1cc(=O)n2[nH]c(N)nc2n1 -5.77%, Nc1nccc(-c2ccc(-n3cnc4ccccc43)cc2)n1 13.3%, COc1cc(-c2ncc3ccccn23)cc(OC)c1OC 0.664%

Potency, active:
CCOc1ccc(C(=O)Nc2cc(C)on2)cc1 1.12 µM, Cc1nn(C)cc1C(=O)Nc1ccc2c(c1)OCCO2 4.47 µM

Potency, inconclusive:
CCc1nc2ccc(C(=O)NCCc3ccco3)cc2nc1CC 2.82 µM [activator, partial curve], O=C(Nc1ccc(C(=O)N2CCCC2)cc1)c1ccc2c(c1)OCO2 4.47 µM [activator, single point], CCNc1nc(N)nc(Oc2ccc(C(=O)OC)cc2)n1 2.82 µM [activator, partial curve], S=C(N/N=C/c1ccc2ncccc2c1)Nc1ccccc1 2.51 µM [activator, partial curve], CCOc1ccc(N/C=C/C(=O)c2ccc(OC)cc2)cc1 2.24 µM [activator, partial curve], O=C(CN1CCOCC1)Nc1ccc(-c2nc3ccccc3[nH]2)cc1 3.55 µM [activator, partial curve], NNc1nc2ccc(Cl)cc2s1 5.01 µM [activator, single point], Cc1ccc(C(=O)Nc2cnc3sc(C)nn3c2=O)cc1 4.47 µM [activator, single point], COc1cc(Cl)ccc1OCc1cc(C(=O)NC(C)Cc2cccnc2)no1 (configuration not stated) 2.51 µM [activator, partial curve], CCOc1ccc2nc(N3C(=O)/C(=C/c4ccccc4)NC3=S)sc2c1 2.82 µM [activator, partial curve], COc1ccc(C(=O)Nc2ccc(OC)c(OC)c2)cc1 3.98 µM [activator, single point], c1ccc(N2CCN(c3nc4cc5c(cc4s3)OCCO5)CC2)cc1 0.708 µM [activator, partial curve], COc1cc(C2NC(=O)NC(C)=C2C(=O)OC2CCCCC2)cc(Cl)c1O (configuration not stated) 1.26 µM [activator, single point], Cc1ccc(-c2cc(-c3ccccc3[N+](=O)[O-])[nH]n2)c(O)c1 4.47 µM [activator, single point], Cc1ccn2c(=O)nc(SCC(=O)c3ccccc3)nc2c1 3.16 µM [activator, partial curve], Cc1ccc(C(=O)Nc2cccc(C(=O)NC3CCCC3)c2)cc1 3.98 µM [activator, partial curve], Cc1c(C(=O)NCC(C)C)sc2nc(-c3ccc(F)cc3)cn12 2.82 µM [activator, partial curve], CNC(=O)c1ccc(NC(=O)/C=C/c2cccc(F)c2)cc1 3.55 µM [activator, single point], Cc1nc(SCC(=O)NC(=O)NC(C)(C)C)nc(C)c1C 0.794 µM [activator, single point], O=C(Nc1ccc2c(c1)nc1n2CCOC1)C1CCCCC1 6.31 µM [activator, single point], Cc1ccc2c(N)c(C(=O)c3ccccc3)sc2n1 2.51 µM [activator, partial curve], O=C(NCCC1=CCCCC1)c1cnc2n(c1=O)CCS2 5.62 µM [activator, single point], Cc1csc(NC(=S)NC(=O)c2ccccc2)n1 5.01 µM [activator, single point], CCc1ccc(C(=O)NNc2ccccc2F)cc1 3.98 µM [activator, partial curve], O=C(Nc1nc(-c2ccccc2)cs1)c1cccs1 3.55 µM [activator, partial curve]
